One molecule from the supplement of paper PMC8728848 can be followed below.

Assay [1] addresses Neu5Gc(a2-8)Neu5Gc(a2-6)Gal(b1-4)GlcNAc. Nature of the assay: glycan array binding signal (z-score within array); higher = stronger binding. As to conditions: glycan notation: IUPAC condensed, linker removed. In short, it runs like this:
(§1)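 Negative Z-scores can be read as non-binding. The Z-score is calculated within each array and then averaged across arrays of one protein sequence at different concentrations or buffers and across linkers. Arrays, 3228 in all, were curated from the Consortium for Functional Glycomics database and kept only where the protein sequence was available.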

In assay [2] the target is Neu5Gc(b2-6)Gal(b1-4)GlcNAc. The assay is described as above. As to conditions: glycan notation: IUPAC condensed, linker removed. An outline of the steps:
as §1

This is one part of the list.

B1: PX14367A-bth-493-35-493 (Bacteroides thetaiotaomicron) (protein)
chain: VSSDQVAVAGNAERLFNGAWYNLFEYGTTYANIGYRALQCQDDMMASDVVSRPKYGFNSSYQFNDVAIPSDGRTSFAWYLIYKTIDNCNTAISIKGDSEELRQAQGQALALRAFCYLHLVQHYQFTYLKDKDAPCVPIYTEPTTSGTKPKGKSTVAQVYQQIFDDLNLAQDYLTNYVRKGDGQKFKPNTDVVNGLMARAYLLTGQWGEAAKAAEAARKGYSLMTTTAEYEGFNNISNKEWIWGSPQTLSQSDASYNFYYLDATYVGAYSSFMADPHLMDTFVKGDIRLPLFQWMREGYLGYKKFHMRSDDTADLVLMRSAEMYLIEAEAKVRDGVALDQAVAPLNTLRTARGVGNYDVTGKTKEQVIDEILMERRRELWGEGFGITDVLRNQKAVERMALSEDMQKTEVDCWQEGGSFAKRNPLGHWFLNFPDGKAFSANSSYYLYAIPEKEINANPNL
As for B1, the “glycan array binding signal (z-score)” value was -0.286 in assay [1] and -0.512 in assay [2].
